Laboratory results from patent US20110083201A1 (UNIVERSITY OF ALBERTA, published 2011).

How the values were obtained:
[1] = target: T1, serpina3n-HA secreted by stably transfected Jurkat cells (clone SerE12-HA), in conditioned medium (mouse, UniProt Q91WP6 21-418); assay: complex formation on immunoblot and enzymatic activity assay with conditioned medium of transfected Jurkat cells
T1 construct: Secreted into Opti-MEM I medium, which was concentrated 5x and used without purification; also called SerE12-HA conditioned medium; serpina3n expressed in Jurkat cells; not shown: C-terminal HA tag
T1 sequence: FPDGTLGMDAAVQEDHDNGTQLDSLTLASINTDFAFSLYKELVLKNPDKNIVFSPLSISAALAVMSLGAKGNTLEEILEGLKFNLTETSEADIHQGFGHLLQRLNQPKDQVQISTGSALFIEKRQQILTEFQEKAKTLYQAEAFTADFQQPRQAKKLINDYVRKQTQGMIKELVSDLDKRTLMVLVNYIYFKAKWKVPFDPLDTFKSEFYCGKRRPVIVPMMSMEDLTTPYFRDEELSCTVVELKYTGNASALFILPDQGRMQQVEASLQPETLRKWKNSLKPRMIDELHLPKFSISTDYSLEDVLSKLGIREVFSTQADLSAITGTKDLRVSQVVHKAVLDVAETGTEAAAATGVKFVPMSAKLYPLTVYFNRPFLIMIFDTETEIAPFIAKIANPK
Procedure: 5 x10⁶ stable transfected cells (clone SerE12-HA) were incubated overnight in 1 ml OPTI-MEM I medium. Serpina3n in the cell lysate (L) and in the conditioned medium (CM) was detected by immunoblotting with anti-HA antibody. […] Formation of serpina3n-granzyme B complex was detected by SDS-PAGE and immunoblotting with an anti-granzyme B antibody.
FIG. 6C is a graph showing serpina3n-HA inhibits granzyme B enzymatic activity. Granzyme B (212 ng) was pre-incubated for 1 hr at 37° C. with increasing volumes of conditioned medium from SerE12-HA cells or pcDNA3-transfected cells, and then granzyme B activity was measured. Data are expressed as percentage of the activity of granzyme B pre-incubated with the medium of pcDNA3-transfected cells and are the mean±standard deviation of three independent experiments performed in triplicate.

[2] = target: T2, mouse serpina3n secreted by Sertoli cells (in Sertoli cell-conditioned medium, SCCM) (mouse, UniProt Q91WP6 21-418); assay: Western blot with anti-granzyme B antibody after 2 h incubation of granzyme B with SCCM; SDS-stable higher molecular mass band
T2 construct: Native serpin secreted by BALB/c mouse Sertoli cells and tested as 10x concentrated conditioned medium, not purified; Identified in the complex by mass spectrometry (gi|6678093); Said to be glycosylated; also called spi2.2
T2 sequence: T1 sequence
Procedure: FIGS. 4A-4C are images of Western blots showing that granzyme B is covalently modified by a factor (i) secreted by cultured Sertoli cells and (ii) is not SPI-6. FIGS. 4A-4C show Western blots of granzyme B incubated for two hours with HAM's control media, SCCM, or PBS. […] Each lane is as follows. […] Each lane of FIGS. 4B and 4C is as follows. 1) HAM's, 2) SCCM, 3) HAM's+granzyme B, 4) SCCM+granzyme B, 5) granzyme B, 6) mouse CTL lysate. The arrow indicates the higher molecular mass complex that appears when granzyme B is incubated with SCCM and that is not detected by the SPI-6 antibody.

B1: human granzyme B purified from the cytolytic granules of YT INDY cells (enzyme)
chain: not shown
notes: The mass spectrometry hit is gi|4758494, granzyme B precursor (Homo sapiens); also called grB; purified human granzyme B
binding result [1]: binds | binding result [2]: binds
